# Experimental data published in the supplement of paper PMC8728848.
# The list shows a part of the results.
# B1: B1567 (Bifidobacterium sp) (protein)
# chain: MKFTTAKKAVALTGAVAMLVSVAACGSDSGKSSQPAQDSDVKEITVWAWEPSLTQVAKDFEKETGIKVDLKNVGTNTKEYTQLDNAIEAGSGAPDVAQVEYYAVPQYAIKGNLLDITDKTSGYKDFYTPGPWASVQFAGKVYGLPMDSGPMAFFYNKEVFDKAGVDAEQIKTWDQYYDAAKKIHALGDNYYITSDTGDAGFFDSMTWLAGAKPFQTSSDGSEVTVNLTEDKGVKTFTDFWQKLLDEGLLDTKTAGWSEDWFKGMVDGTIASLFTGAWMPANLANSAADGAGKWRVTQMPTADGSTTNSENGGSSLAVLASTKKADAAYQFIEYANHGAGVATRVAGGAFPADKASLEKDSFKNATTVKNADGQDVDYFGGQKYNEVLAQAAENVSSGYQFLPFEVKARTIFGDYFGKSYTGDQKLSDGVAAWQKALQDYGKDQGFTVK
# Columns and labels:
# Assay in all cases: glycan array binding signal (z-score within array); higher = stronger binding
# Conditions in all cases: glycan notation: IUPAC condensed, linker removed
# [1] = molecular target: Gal(a1-3)Gal(b1-4)GlcNAc(b1-2)Man
# Outline: (§1)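 The binding signal is a Z-score computed within each array and averaged over linkers. Arrays of the same protein sequence at different concentrations or buffers were also averaged together. Data originate from 3228 arrays in the Consortium for Functional Glycomics database, kept only where the protein sequence was available.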
# [2] = molecular target: Gal(a1-3)Gal(b1-4)GlcNAc(b1-2)Man(a1-3)[Gal(a1-3)Gal(b1-4)GlcNAc(b1-2)Man(a1-6)]Man(b1-4)GlcNAc(b1-4)GlcNAc
# Outline: as §1
# [3] = molecular target: Gal(a1-3)Gal(b1-4)GlcNAc(b1-3)GalNAc
# Outline: as §1
# [4] = molecular target: Gal(a1-3)Gal(b1-4)GlcNAc(b1-6)GalNAc
# Outline: as §1
# [5] = molecular target: Gal(a1-3)Gal(b1-4)[Fuc(a1-3)]GlcNAc
# Outline: as §1
# [6] = molecular target: Gal(a1-3)Gal(b1-4)[Fuc(a1-3)]GlcNAc(b1-2)Man(a1-3)[Gal(a1-3)Gal(b1-4)[Fuc(a1-3)]GlcNAc(b1-2)Man(a1-6)]Man(b1-4)GlcNAc(b1-4)GlcNAc
# Outline: as §1
# Gal(a1-3)GalNAc = molecular target: Gal(a1-3)GalNAc
# Outline: as §1
# [7] = molecular target: Gal(a1-3)[Gal(a1-4)]Gal(b1-4)GlcNAc
# Outline: as §1
# [8] = molecular target: Gal(a1-4)Gal(b1-3)GlcNAc(b1-2)Man(a1-3)[Gal(a1-4)Gal(b1-3)GlcNAc(b1-2)Man(a1-6)]Man(b1-4)GlcNAc(b1-4)GlcNAc
# Outline: as §1
# Gal(a1-4)Gal(b1-4)Glc = molecular target: Gal(a1-4)Gal(b1-4)Glc
# Outline: as §1
# Gal(a1-4)Gal(b1-4)GlcNAc = molecular target: Gal(a1-4)Gal(b1-4)GlcNAc
# Outline: as §1
# [9] = molecular target: Gal(a1-4)Gal(b1-4)GlcNAc(b1-2)Man(a1-3)[Gal(a1-4)Gal(b1-4)GlcNAc(b1-2)Man(a1-6)]Man(b1-4)GlcNAc(b1-4)GlcNAc
# Outline: as §1
# [10] = molecular target: Gal(a1-4)Gal(b1-4)GlcNAc(b1-3)Gal(b1-4)Glc
# Outline: as §1
# Gal(a1-4)GlcNAc = molecular target: Gal(a1-4)GlcNAc
# Outline: as §1
# Gal(a1-6)Glc = molecular target: Gal(a1-6)Glc
# Outline: as §1
# Gal(b1-2)Gal = molecular target: Gal(b1-2)Gal
# Outline: as §1
# Gal(b1-3)Gal = molecular target: Gal(b1-3)Gal
# Outline: as §1
# Gal(b1-3)Gal(b1-4)GlcNAc = molecular target: Gal(b1-3)Gal(b1-4)GlcNAc
# Outline: as §1
# Gal(b1-3)GalNAc = molecular target: Gal(b1-3)GalNAc
# Outline: as §1
# [11] = molecular target: Gal(b1-3)GalNAc(a1-3)[Fuc(a1-2)]Gal(b1-4)Glc
# Outline: as §1
# [12] = molecular target: Gal(b1-3)GalNAc(a1-3)[Fuc(a1-2)]Gal(b1-4)GlcNAc
# Outline: as §1
# Gal(b1-3)GalNAc(b1-3)Gal = molecular target: Gal(b1-3)GalNAc(b1-3)Gal
# Outline: as §1
# [13] = molecular target: Gal(b1-3)GalNAc(b1-3)Gal(a1-4)Gal(b1-4)Glc
# Outline: as §1
# [14] = molecular target: Gal(b1-3)GalNAc(b1-4)Gal(b1-4)Glc
# Outline: as §1
# [15] = molecular target: Gal(b1-3)GalNAc(b1-4)[Neu5Ac(a2-3)]Gal(b1-4)Glc
# Outline: as §1
# Gal(b1-3)GlcNAc = molecular target: Gal(b1-3)GlcNAc
# Outline: as §1
# [16] = molecular target: Gal(b1-3)GlcNAc(a1-3)Gal(b1-4)GlcNAc
# Outline: as §1
# [17] = molecular target: Gal(b1-3)GlcNAc(a1-6)Gal(b1-4)GlcNAc
# Outline: as §1
# Gal(b1-3)GlcNAc(b1-2)Man = molecular target: Gal(b1-3)GlcNAc(b1-2)Man
# Outline: as §1
# [18] = molecular target: Gal(b1-3)GlcNAc(b1-2)Man(a1-3)[Gal(b1-3)GlcNAc(b1-2)Man(a1-6)]Man(b1-4)GlcNAc(b1-4)GlcNAc
# Outline: as §1
# [19] = molecular target: Gal(b1-3)GlcNAc(b1-2)Man(a1-3)[Gal(b1-3)GlcNAc(b1-2)Man(a1-6)]Man(b1-4)GlcNAc(b1-4)[Fuc(a1-6)]GlcNAc
# Outline: as §1
# [20] = molecular target: Gal(b1-3)GlcNAc(b1-2)Man(a1-3)[GlcNAc(b1-4)][Gal(b1-3)GlcNAc(b1-2)Man(a1-6)]Man(b1-4)GlcNAc(b1-4)GlcNAc
# Outline: as §1
# [21] = molecular target: Gal(b1-3)GlcNAc(b1-2)[Gal(b1-3)GlcNAc(b1-6)]Man(a1-6)[Gal(b1-3)GlcNAc(b1-2)Man(a1-3)]Man(b1-4)GlcNAc(b1-4)GlcNAc
# Outline: as §1
# [22] = molecular target: Gal(b1-3)GlcNAc(b1-3)Gal(b1-3)GlcNAc
# Outline: as §1
# [23] = molecular target: Gal(b1-3)GlcNAc(b1-3)Gal(b1-4)Glc
# Outline: as §1
# [24] = molecular target: Gal(b1-3)GlcNAc(b1-3)Gal(b1-4)GlcNAc
# Outline: as §1
# [25] = molecular target: Gal(b1-3)GlcNAc(b1-3)Gal(b1-4)GlcNAc(b1-2)Man(a1-3)[Gal(b1-3)GlcNAc(b1-3)Gal(b1-4)GlcNAc(b1-2)Man(a1-6)]Man(b1-4)GlcNAc(b1-4)GlcNAc
# Outline: as §1
binder,measurement,setting,value
B1,glycan array binding signal (z-score),[1],-0.074
same,glycan array binding signal (z-score),[2],0.008
same,glycan array binding signal (z-score),[3],-0.115
same,glycan array binding signal (z-score),[4],-0.063
same,glycan array binding signal (z-score),[5],-0.122
same,glycan array binding signal (z-score),[6],0.069
same,glycan array binding signal (z-score),Gal(a1-3)GalNAc,-0.092
same,glycan array binding signal (z-score),[7],-0.111
same,glycan array binding signal (z-score),[8],-0.076
same,glycan array binding signal (z-score),Gal(a1-4)Gal(b1-4)Glc,-0.136
same,glycan array binding signal (z-score),Gal(a1-4)Gal(b1-4)GlcNAc,-0.084
same,glycan array binding signal (z-score),[9],0.067
same,glycan array binding signal (z-score),[10],-0.15
same,glycan array binding signal (z-score),Gal(a1-4)GlcNAc,-0.092
same,glycan array binding signal (z-score),Gal(a1-6)Glc,-0.044
same,glycan array binding signal (z-score),Gal(b1-2)Gal,-0.056
same,glycan array binding signal (z-score),Gal(b1-3)Gal,-0.133
same,glycan array binding signal (z-score),Gal(b1-3)Gal(b1-4)GlcNAc,-0.08
same,glycan array binding signal (z-score),Gal(b1-3)GalNAc,0.003
same,glycan array binding signal (z-score),[11],-0.013
same,glycan array binding signal (z-score),[12],-0.125
same,glycan array binding signal (z-score),Gal(b1-3)GalNAc(b1-3)Gal,-0.121
same,glycan array binding signal (z-score),[13],-0.032
same,glycan array binding signal (z-score),[14],-0.11
same,glycan array binding signal (z-score),[15],-0.13
same,glycan array binding signal (z-score),Gal(b1-3)GlcNAc,-0.124
same,glycan array binding signal (z-score),[16],-0.132
same,glycan array binding signal (z-score),[17],-0.093
same,glycan array binding signal (z-score),Gal(b1-3)GlcNAc(b1-2)Man,0.008
same,glycan array binding signal (z-score),[18],-0.108
same,glycan array binding signal (z-score),[19],-0.125
same,glycan array binding signal (z-score),[20],-0.044
same,glycan array binding signal (z-score),[21],-0.084
same,glycan array binding signal (z-score),[22],-0.076
same,glycan array binding signal (z-score),[23],-0.121
same,glycan array binding signal (z-score),[24],-0.02
same,glycan array binding signal (z-score),[25],0.001
